Test results as given in PubChem BioAssay AID504466 (National Center for Advancing Translational Sciences (NCATS), 2011).
The whole screen tested about 330,000 compounds, of which about 4,200 (1.3%) were called active. The shares of active, inactive and inconclusive entries below differ from those in the screen. Calls follow the shape of the dose curve; as a rule, active = well fitted activation curve with a large enough effect; inconclusive = small, poorly fitted or top-dose-only effect; inactive = no such curve, though single readings can be large or run the other way. Potencies beside an inconclusive call are fits to weak or partial responses and may not hold up.

Assay: qHTS screen for small molecules that induce genotoxicity in human embryonic kidney (HEK293T) cells expressing luciferase-tagged ELG1; also: nearly all actives have a fitted effect of over 60% in size; as to activity change, positive = activation: % of control where 0% means no effect
Settings: HEK293T ELG1-luciferase reporter, luminescence, 16 h; series mostly up to 46 µM; activity change, positive = activation: at the top concentration
Procedure, shortened: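 Genotoxicity was scored as increased ELG1-luciferase reporter signal, measured by ONE-Glo luminescence (30 min, room temperature). Compound or vehicle exposure of the HEK293T reporter cells lasted 16 hr at 37°C.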
Potency is read from the fitted curve at half-maximal effect; tags tell the direction and shape of the fitted curve.

Row | Compound | activity change, positive = activation | Potency
1 | COc1cccc(/C=N/NC(=O)CCCC(=O)Nc2ccc(Br)cc2)c1 | inactive: -2.15% | 
2 | O/N=C/c1ccc2ccccc2n1 |  | inconclusive: 18.3 µM [activator, partial curve, poor fit]
3 | Oc1ccc(-c2nccc(-c3ccc(Cl)cc3)n2)cc1 |  | inconclusive: 18.3 µM [activator, partial curve, poor fit]
4 | O=C(OCC(=O)N1CCOCC1)c1ccccc1Cc1ccccc1 |  | active: 13 µM
5 | O=C1NC(=O)/C(=C/c2ccc(O)cc2)S1 |  | inconclusive: 20.6 µM [activator, partial curve, poor fit]
6 | COc1ccc(-c2csc(NC(=O)CCn3cnc4ccccc4c3=O)n2)cc1OC | inactive: -1.09% | 
7 | O=C(NC1CC1)C(=O)c1c[nH]c2ccccc12 | inactive: 6.13% | 
8 | COc1ccc(C2(C(=O)Nc3cc(C)on3)CCOCC2)cc1 |  | inconclusive: 6.51 µM [activator, partial curve, poor fit]
9 | O=c1[nH]c2ccc(Cl)cc2c(-c2ccccc2)c1N1CCN(c2ccccn2)CC1 | inactive: -3.99% | 
10 | Cc1cc(N2CCN(C)CC2)nc2ccc(NC(=O)c3ccccc3F)cc12 |  | inconclusive: 8.2 µM [activator, single point]
11 | CSc1cccc(N2CC(C(=O)N3CCN(S(=O)(=O)c4ccccc4Cl)CC3)CC2=O)c1 (stereo not given) | inactive: -5.37% | 
12 | COc1cc2c(C(=O)Nc3ccc4c(c3)OCO4)cn(CC(C)C)c(=O)c2cc1OC | inactive: -7.25% | 
13 | Nn1c(SCc2ccccc2F)nnc1-c1ccccn1 |  | active: 18.3 µM
14 | Cc1ccc(NC(=O)NC2CCCCC2)cc1Cl |  | active: 3.66 µM
15 | Cc1ccc(C(=O)COC(=O)c2cccs2)cc1 |  | inconclusive: 1.84 µM [activator, full curve]
16 | Cc1cccc(NC(=O)Nc2ccc(C)c(C)c2)n1 |  | inconclusive: 5.8 µM [activator, partial curve]
17 | Cn1c(SCC(=O)c2ccccc2)nnc1-c1cccs1 |  | inconclusive: 18.3 µM [activator, partial curve, poor fit]
18 | O=c1cc(-c2ccc(O)cc2)oc2ccc3ccccc3c12 |  | inconclusive: 0.116 µM [activator, full curve, poor fit]
19 | CCOc1cccc(C(=O)NC(=S)Nc2ccccc2)c1 |  | inconclusive: 7.31 µM [activator, partial curve]
20 | O=C(Nc1nnc(-c2ccc3c(c2)OCCO3)o1)C1CCCCC1 |  | inconclusive: 5.8 µM [activator, partial curve]
21 | CCOc1ccc(N(CC(=O)Nc2ccc(OC)cc2)S(C)(=O)=O)cc1 |  | inconclusive: 25.9 µM [activator, partial curve, poor fit]
22 | COc1ccc(C)c2sc(NNC(=O)COc3ccccc3)nc12 |  | inconclusive: 29.1 µM [activator, partial curve, poor fit]
23 | Cc1ccc2oc(-c3ccc(NC(=O)c4cccnc4)cc3)nc2c1 |  | inconclusive: 2.06 µM [activator, partial curve, poor fit]

Row | Compound | activity change, positive = activation | Potency
24 | CCCc1ccc(C(=O)NNc2ccc(F)cc2)cc1 |  | inconclusive: 14.6 µM [activator, partial curve, poor fit]
25 | Cc1nnc(SCC(=O)Nc2sc3c(c2C#N)CCCCC3)n1N |  | inconclusive: 29.1 µM [activator, single point]
26 | CCn1c2ccccc2c2cc(NC(=O)C(=O)N3CCOCC3)ccc21 |  | inconclusive: 16.4 µM [activator, single point]
27 | COc1cccc(NC(=O)NC2CCCCCCC2)c1 |  | inconclusive: 2.91 µM [activator, full curve, poor fit]
28 | COc1cc(SC)ccc1C(=O)OCC(=O)N1CCCC1 |  | inconclusive: 23.1 µM [activator, partial curve, poor fit]
29 | Cc1cc(C)c2nc(N3CCCC(C(=O)NCCN4CCOCC4)C3)sc2c1 (stereo not given) |  | inconclusive: 6.51 µM [activator, partial curve, poor fit]
30 | CSc1ncc2c(=O)[nH]c(-c3ccccc3)nc2n1 | inactive: 4.2% | 
31 | CC(C)c1nc2ccc(C(=O)O)cc2[nH]1 |  | inconclusive: 16.4 µM [activator, single point]
32 | Cc1cccc(Cn2cc(SCC(=O)Nc3nccs3)c3ccccc32)c1 |  | active: 4.11 µM
33 | Cc1cccc(NC(=O)c2ccc(C)c(S(=O)(=O)N3CCCCC3)c2)n1 |  | inconclusive: 18.3 µM [activator, single point]
34 | CC1CCCC(C)N1C(=O)COC(=O)c1ccc2c(c1)OCO2 (stereo not given) |  | inconclusive: 20.6 µM [activator, partial curve, poor fit]
35 | Oc1ccc(-c2cn3c(n2)SCC3)cc1O |  | inconclusive: 11.2 µM [activator, partial curve]
36 | O=C(COC(=O)C1CCN(S(=O)(=O)c2cccs2)CC1)Nc1ccc(F)cc1F | inactive: 0.185% | 
37 | COc1ccc2c(c1)cc1n2CCN=C1NN |  | inconclusive: 32.6 µM [activator, single point]
38 | Cn1nc(-c2ccc(C(=O)NCC3CCCO3)cc2)c2ccccc2c1=O (stereo not given) |  | inconclusive: 23.1 µM [activator, single point]
39 | CC(=O)c1c(C)[nH]c(C2=NNC(=NCc3ccccc3)SC2)c1C |  | inconclusive: 11.6 µM [activator, partial curve, poor fit]
40 | Cn1c(=O)c2[nH]c(N3CCN(c4ccccc4)CC3)nc2n(C)c1=O |  | inconclusive: 14.6 µM [activator, partial curve]
41 | O=[N+]([O-])c1cccc(/C=C/c2ccc3cccc(O)c3n2)c1 |  | inconclusive: 20.6 µM [activator, partial curve]
42 | CCCS(=O)(=O)c1c(S(=O)(=O)CCC)c2cc(-c3ccncc3)ccn2c1C(=O)OC |  | inconclusive: 3.66 µM [activator, full curve, poor fit]
43 | O=C(NCc1cccs1)C1CCCN1C(=O)Nc1cccc(Cl)c1 (stereo not given) | inactive: 0.272% | 
44 | COc1ccccc1C(=O)NNC(=O)c1ccccc1F |  | inconclusive: 13 µM [activator, partial curve]
45 | CCc1nonc1NC(=O)c1oc2cc(C)c(C)cc2c1C |  | inconclusive: 6.51 µM [activator, partial curve]
